Data taken from PubChem BioAssay AID485294 (National Center for Advancing Translational Sciences (NCATS), 2010).
Among all 370,000 compounds or so, about 150 (0.041%) were called active. The shares of active, inactive and inconclusive entries below differ from those in the screen. Calls come from the whole dose curve; as a rule, active = well fitted inhibition curve with a large enough effect; inconclusive = small, poorly fitted or top-dose-only effect; inactive = flat fitted curve, though single readings scatter. Potencies of inconclusive entries are left out as doubtful fits.

Target: Beta-lactamase (Escherichia coli (strain K12)) (UniProt P00811)
UniProt P00811, sequence (P00811 whole entry, looked up): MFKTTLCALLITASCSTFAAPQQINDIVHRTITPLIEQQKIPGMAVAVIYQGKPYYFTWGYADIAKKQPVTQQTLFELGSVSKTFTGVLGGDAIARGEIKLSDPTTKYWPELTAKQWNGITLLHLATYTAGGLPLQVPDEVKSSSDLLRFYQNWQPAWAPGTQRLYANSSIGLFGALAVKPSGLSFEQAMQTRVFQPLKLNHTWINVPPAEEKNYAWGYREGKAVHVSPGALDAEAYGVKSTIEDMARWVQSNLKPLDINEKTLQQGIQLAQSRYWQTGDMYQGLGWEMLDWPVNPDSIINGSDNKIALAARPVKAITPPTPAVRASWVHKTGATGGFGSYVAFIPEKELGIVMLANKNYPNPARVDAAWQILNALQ
Test: qHTS Inhibitors of AmpC Beta-Lactamase (assay with detergent); note: nearly all actives have a fitted effect of over 25% in size
Conditions: AmpC hydrolysis of nitrocefin, absorbance 480 nm, 0.01% Triton; series mostly up to 114 µM
Method in brief: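 AmpC (5.3 nM in the dispensed reagent) in 20 mM phosphate pH 7.0 with 0.01% (detergent screen) or 0.0001% Triton X-100 was preincubated with compounds for 15 min at room temperature. Nitrocefin was then added from an 800 uM solution, and hydrolysis was followed at 480 nm.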
Potency is the fitted concentration of half-maximal effect; tags give direction and shape of the fitted curve.

Row | Compound | Potency
1 | COc1ccc(-n2c(Cc3ccccc3)nc3ccccc3c2=O)cc1 | inconclusive [inhibitor, single point]
2 | COc1ccc(C(C[N+](=O)[O-])c2c(-c3ccccc3)cc3ccccn23)cc1OC (configuration not stated) | inactive
3 | COc1cc(C(=O)NCc2cccnc2)ccc1OCC(=O)Nc1cccc(C(F)(F)F)c1 | inconclusive [inhibitor, single point]
4 | CCOC(=O)c1c(C)[nH]c(C(=O)OCC(=O)NC(C)(C)C)c1C | inactive
5 | COc1cc(NC(=O)Cn2cnc3sc(C)c(S(=O)(=O)N4CCC(C)CC4)c3c2=O)cc(OC)c1OC | inactive
6 | NC(=O)CC(NC(=O)Cc1cccc2ccccc12)c1ccc(N2CCC(Cc3ccccc3)CC2)c([N+](=O)[O-])c1 (configuration not stated) | inconclusive [inhibitor, partial curve]
7 | O=C(c1cccc(S(=O)(=O)N2CCN(c3ccccc3)CC2)c1)N1CCN(c2ccccc2O)CC1 | inconclusive [inhibitor, partial curve, poor fit]
8 | Cc1ccc(C(=O)CC(C(=O)O)n2cncn2)cc1 (configuration not stated) | inactive
9 | CC(C)C[C@H](NC(=O)N1CC(=O)Nc2ccccc21)C(=O)N[C@H](C(=O)O)c1ccccc1 | inconclusive [inhibitor, full curve]
10 | CCOC(=O)CCNC(=O)Nc1ccc2nc(C)n(Cc3cccc(Cl)c3)c(=O)c2c1 | inconclusive [inhibitor, full curve]
11 | O=C(CSc1ccc2nnc(-c3ccc(Cl)cc3)n2n1)N1CCCc2ccccc21 | inactive
12 | COCCn1c(-c2cccc([N+](=O)[O-])c2)nc2c1c(=O)[nH]c(=O)n2Cc1ccccc1 | inconclusive [inhibitor, full curve, poor fit]
13 | COc1cc(-c2noc(-c3ccccc3C(=O)NCc3ccco3)n2)cc(OC)c1OC | inconclusive [inhibitor, full curve, poor fit]
14 | CCOc1ccc(-c2cnc(SCC(N)=O)nc2N)cc1 | inconclusive [inhibitor, partial curve]
15 | Cn1cc(CN2CCCC(CO)(Cc3cccc(Cl)c3)C2)cn1 (configuration not stated) | inactive
16 | O=S(=O)(c1ccccc1)c1nc(-c2ccco2)oc1NCc1cccnc1 | inactive
17 | Cc1ccc2cc(CN(Cc3ccco3)C(=O)C3CCCCC3)c(=O)[nH]c2c1C | inconclusive [inhibitor, full curve, poor fit]
18 | CC(C)(C)NC(=O)CSc1nc(O)cc(=O)[nH]1 | inactive
19 | Cc1ccc(-c2csc(-c3c[nH]c4ccccc34)n2)cc1 | inconclusive [inhibitor, single point]
20 | CN(C(=O)c1ccc(Br)o1)C1CCCCC1 | inactive
21 | CCC(=O)N1CC2(CC(c3cccc(NC(=O)CC(c4ccccc4)c4ccccc4)c3)=NO2)C[C@H]1C(N)=O (some centres not stated) | inactive
22 | O=C(c1ccc(Cl)c(S(=O)(=O)N2CCOCC2)c1)N1CCCCC1 | inconclusive [inhibitor, full curve, poor fit]
23 | CCCCCc1nnc(NC(=O)C(=O)OCC)s1 | inconclusive [inhibitor, full curve, poor fit]

Row | Compound | Potency
24 | CC(C)CC(COCc1ccc(Cl)cc1)N1CCN(C(=O)c2cccc(C(F)(F)F)c2)CCC1=O (configuration not stated) | inconclusive [inhibitor, partial curve, poor fit]
25 | COCc1nc2ccccc2n1Cc1cccc(C)c1 | inconclusive [inhibitor, partial curve, poor fit]
26 | CN(C)c1ccc(/C=C(\C#N)C(=O)c2ccccc2)cc1 | inactive
27 | CC(NC(=O)c1ccccc1)c1ccc(F)cc1 (configuration not stated) | inconclusive [inhibitor, full curve]
28 | COc1ccccc1-c1cc(C(=O)Nc2sc3c(c2C#N)CCC(C)C3)c2ccccc2n1 (configuration not stated) | inactive
29 | COc1ccc(-c2nc(N)n[nH]2)cc1OC | inconclusive [inhibitor, full curve, poor fit]
30 | COC(=O)c1ccc(CN2C(=O)NC3(CCCCC3C)C2=O)o1 (configuration not stated) | inconclusive [inhibitor, full curve, poor fit]
31 | CCCCN(Cc1cc2cc(OC)ccc2[nH]c1=O)C(=O)c1ccco1 | inconclusive [inhibitor, full curve, poor fit]
32 | Cc1ccc(Cn2c(CNC(=O)Cc3cccc([N+](=O)[O-])c3)nc3cccnc32)cc1 | inactive
33 | Cc1ccc(C(=O)NNS(=O)(=O)c2ccc(F)cc2)cc1 | inconclusive [inhibitor, single point]
34 | COC(=O)c1cc(NS(=O)(=O)c2ccc(N3CCOCC3)c(NC(C)=O)c2)cc(C(=O)OC)c1 | inconclusive [inhibitor, single point]
35 | Cn1c(SCC(=O)Nc2ccccc2F)nnc1-c1ccc(S(=O)(=O)N2CCOCC2)cc1 | inconclusive [inhibitor, full curve]
36 | CCc1ccccc1NC(=O)CN1C(=O)c2cccnc2Sc2ccccc21 | inactive
37 | COc1cccc(/C=N/n2c(-c3cc(C)[nH]n3)n[nH]c2=S)c1 | inactive
38 | COc1ccc(C(=O)C(C)(C)NO)cc1 | inconclusive [inhibitor, partial curve, poor fit]
39 | COc1cc([N+](=O)[O-])ccc1NC(=O)CSc1n[nH]c(C(C)C)n1 | inconclusive [inhibitor, full curve, poor fit]
40 | NC(Cc1c[nH]c2ccccc12)C(=O)NCc1ccccc1 (configuration not stated) | inactive
41 | Cc1cc2[nH]c(=O)c(=O)[nH]c2cc1S(=O)(=O)Nc1ccccc1F | inconclusive [inhibitor, partial curve, poor fit]
42 | O=C(CSc1nc2ccccc2nc1Cc1ccccc1F)Nc1cccc(C(F)(F)F)c1 | inconclusive [inhibitor, full curve, poor fit]
43 | CCn1c(=N)c(S(=O)(=O)c2ccc(F)cc2)cc2c(=O)n3ccccc3nc21 | inconclusive [inhibitor, full curve]
44 | S=c1[nH]nc(COc2ccc(Cl)cc2)n1-c1ccccc1 | inconclusive [inhibitor, partial curve, poor fit]
45 | COc1ccc(-c2onc(C)c2C)cc1S(=O)(=O)Nc1cc(Cl)ccc1C | inactive
46 | CCc1nc(N2CCC(C)CC2)c2oc3ccccc3c2n1 | inconclusive [inhibitor, full curve, poor fit]

Row | Compound | Potency
47 | N#Cc1c(N)c(C(=O)c2ccc(Cl)cc2)n2c1CCC2 | inconclusive [inhibitor, partial curve, poor fit]
48 | COc1cc(CNCc2ccccc2C(F)(F)F)cc(OC)c1 | inconclusive [inhibitor, full curve]
49 | NC(=O)/C(=N\O)c1ccccc1 | inconclusive [inhibitor, partial curve, poor fit]
50 | COc1ccc(NC(=O)C2CCCN2S(=O)(=O)c2ccc3c(c2)CCC(=O)N3)c(OC)c1 (configuration not stated) | inconclusive [inhibitor, full curve]
51 | CN(C)C(=O)N1CCCC(C(=O)NCc2ccccc2)C1 (configuration not stated) | inconclusive [inhibitor, partial curve, poor fit]
52 | COc1ccccc1C1C(C(N)=O)=C(C)Nc2nc(-c3ccccc3Cl)nn21 (configuration not stated) | inconclusive [inhibitor, partial curve, poor fit]
53 | Cc1[nH]c2ccccc2c1C(=O)CSc1ncn[nH]1 | inconclusive [inhibitor, full curve]
54 | COc1ccc(/C=C/C(=O)OCc2cccc([N+](=O)[O-])c2)cc1 | inconclusive [inhibitor, partial curve, poor fit]
55 | CCc1ccc(NC(=O)CSc2nc(=O)n(CCN(C)C)c3c2CCCC3)cc1 | inactive
56 | CCS(=O)(=O)N1Cc2ccccc2CC1C(=O)Nc1nc(C)cs1 (configuration not stated) | inactive
57 | O=C(O)c1ccc(NCc2ccc3c(c2)OCO3)cc1 | inconclusive [inhibitor, full curve, poor fit]
58 | O=C(Nc1ccc(S(=O)(=O)Nc2ncccn2)cc1)c1ccccc1Br | inconclusive [inhibitor, full curve, poor fit]
59 | O=c1c2ccccc2cnn1Cc1n[nH]c(=S)n1-c1ccccc1 | inconclusive [inhibitor, full curve, poor fit]
60 | COc1cccc(NC(=O)CN(C)C(=O)CSc2ncnc3sc(C)c(C)c23)c1 | inactive
61 | O=C(CNc1ccccc1)N/N=C/c1c(O)ccc2ccccc12 | inactive
62 | COc1ccc(NC(=O)C(CC(=O)O)Cc2ccc(Cl)cc2)cc1 (configuration not stated) | inconclusive [inhibitor, full curve, poor fit]
63 | COc1cccc(C(=O)Nc2cccc(SC)c2)c1 | inconclusive [inhibitor, full curve, poor fit]
64 | CS(=O)(=O)c1ccc(-c2cccc(NC(=O)COc3ccc(Cl)cc3)c2)nn1 | inconclusive [inhibitor, full curve, poor fit]
65 | Cc1ccccc1NC1=NC(=S)N(c2ccccc2)C12CCCCC2 | inconclusive [inhibitor, partial curve]
66 | CC(C)CN(C(=O)CCc1ccccc1Cl)c1c(N)n(Cc2ccccc2)c(=O)[nH]c1=O | inconclusive [inhibitor, partial curve, poor fit]
67 | Cn1cnc([N+](=O)[O-])c1Oc1ccc2ccccc2c1 | inactive
